Source: ChEMBL document CHEMBL4888484, “Replenishing the malaria drug discovery pipeline: Screening and hit evaluation of the MMV Hit Generation Library 1 (HGL1) against asexual blood stage Plasmodium falciparum ,using a nano luciferase reporter read-out” (2022)
Hit rate of the full screen: of about 150,000 compounds, about 540 (0.36%) showed an effect of 50% or more. This is one part of the list.

test system: Plasmodium falciparum; experiment: Primary screen in NF54 nanoGlo assay, in single point, at 2uM, 72h; a lower Z score goes with more inhibition; assay type: functional, Erythrocyte; conditions: timepoint 72 hour

Row | SMILES | % Inhibition [%] | Z score
1 | Cc1c([C@@H](NC(=O)CCn2cncn2)C(C)C)oc2ccccc12 | -9 | 1.24
2 | CC(C)(C)NC(=O)N1CCC2(CC1)C(=O)N(CC(=O)NC[C@H]1CCCO1)CN2c1ccccc1 | -3 | 0.29
3 | O=C(Nc1ccc(NC(=O)c2ccco2)cc1)Nc1ccc(F)cc1F | -9 | 1.68
4 | CN(CCN1CCN(c2cccc(Cl)c2)C1=O)C(=O)OC(C)(C)C | 3 | -0.32
5 | CCC1(CC)Oc2ccc(NC3CCN(C(C)=O)CC3)cc2O1 | 3 | -0.38
6 | CC(=O)N1CCN(C(=O)C(C)N2CCc3sccc3C2c2ccccc2C)CC1 (stereo not drawn) | 2 | -0.39
7 | O=S(=O)(C1COC1)N1CCOCC1C1CCCO1 (stereo not drawn) | 1 | -0.12
8 | Cc1cc(F)ccc1NC(=O)CC(C)(C)CC(=O)O | -3 | 0.45
9 | COC(=O)[C@@H](NC(=O)Nc1nncs1)C(C)(C)C | 5 | -0.98
10 | Cc1nc(C2CCCN2C(=O)CC2CCCCC2C)[nH]c1C (stereo not drawn) | 29 | -3.88
11 | O=C(Cc1nc2ccccc2c(=O)[nH]1)Nc1ccc2c(c1)OCCO2 | -3 | 0.45
12 | Cc1cc(C(=O)N[C@@H](C)c2ccc(C)o2)no1 | -2 | 0.33
13 | Cc1cc2c(cc1S(=O)(=O)N1CCN(C(=O)Cc3cccs3)CC1)OCC(=O)N2 | -16 | 1.63
14 | COCCn1nc(C)c(NC(=O)C(=O)Nc2cc(Br)ccc2F)c1C | 0 | 0.06
15 | CC1(C)C(=O)NCCN1C(=O)NC[C@H]1CCCO1 | -12 | 1.72
16 | Cc1nn(C)cc1C(=O)N(C(C)C)C1CC(C)(C)C1 | 32 | -3.59
17 | C[C@]1(c2cc(F)ccc2F)NC(=O)N(Cc2ccc(Cl)s2)C1=O | 4 | -0.54
18 | O=C(CN1CCN(c2ccc3c(c2)OCCO3)C1=O)Nc1ccc(C(F)(F)F)cc1 | 0 | 0.07
19 | O=C(NCC1CCN(C(=O)c2ccc[nH]2)CC1)c1ccsc1 | -22 | 2.23
20 | OC[C@H]1CCN(c2nnc(-c3ccccc3)cc2C(F)(F)F)C1 | -2 | 0.4
21 | Cc1cc(NC(=O)[C@H]2CCC(=O)NC2)ccc1N1CCCC1=O | -4 | 0.72
22 | c1ccc(CN2CCCCC2)c(CNc2ccc3nccn3n2)c1 | -1 | 0.13
23 | COc1cc(OC)cc(C(C(=O)O)N2CCC(c3ccccc3)C(C)C2)c1 (stereo not drawn) | -3 | 0.56
24 | COc1ccc2c(c1)CC[C@H](C(=O)Nc1nccnc1C(C)C)C2 | -2 | 0.34
25 | O=C(NCc1nnc2c(-c3nc(C4CC4)no3)cccn12)C1CCCC1 | -11 | 2.2
26 | CC[C@](C)(NCc1ccco1)c1nnnn1-c1ccc(Cl)cc1 | -11 | 1.62
27 | COc1ccc(C(=O)N2c3cc(CNC(=O)c4cccc(C)c4)ccc3C[C@@H]2C)cc1 | 7 | -0.83

Row | SMILES | % Inhibition [%] | Z score
28 | COC(=O)c1ccc(NCC[C@H](C)NC(=O)OC(C)(C)C)c(C#N)n1 | 0 | 0.04
29 | c1ccc2c(c1)N=C(NC1CCCCC1)C1(CCCCCC1)N2 | 1 | -0.12
30 | Cn1ncnc1CCNC(=O)[C@H]1CC[C@@H](O)CC1 | -2 | 0.27
31 | N#CC(NC(=O)C1CCc2[nH]nnc2C1)c1ccc(F)cc1 (stereo not drawn) | 33 | -3.76
32 | O=C(NCc1cccc(CN2CCCCCC2)c1)c1ccc(NS(=O)(=O)c2cccs2)cc1 | 0 | -0.01
33 | C[C@H](Oc1ccc(Cl)cc1Br)C(=O)Nc1ccccc1C(=O)NCc1ccco1 | -28 | 2.96
34 | CCCCN(Cc1ccccc1)c1ccc(C(=O)O)cc1NS(=O)(=O)c1cccc(C)c1 | -12 | 1.19
35 | COc1ccc(-c2ccc(N3CCN(C(=O)CN(CCc4ccccc4)C(=O)c4cccc(F)c4)CC3)nn2)cc1OC | -10 | 1.5
36 | CC(C)CN(Cc1cccnc1)C(=O)[C@@H](c1ccc2c(c1)OCO2)N(C)C | -23 | 2.28
37 | O=C(CCN1CCN(c2ccccc2)CC1)Nc1ccc2c(c1)CCC2 | -1 | 0.14
38 | Cc1cc(CN2CC[C@@H](NC(=O)OC(C)(C)C)C2)no1 | -12 | 1.77
39 | Cc1cccc(-c2cc3n(n2)CCCN(C(=O)c2ccccn2)C3)c1 | 2 | -0.26
40 | Cc1cc(CN2CCN(C(=O)Nc3ccccc3N(C)C3CCCC3)CC2)on1 | -9 | 0.76
41 | Cc1ccc(CN(C)C2CCCCC2)o1 | 39 | -5
42 | O=C(CS(=O)(=O)Cc1ccn(-c2ccccc2)n1)NC1CCCC1 | 0 | -0.01
43 | Cc1noc(C)c1[C@@H](C)CNCc1ccccn1 | -7 | 0.76
44 | COc1cccc(CNS(=O)(=O)c2c(C)sc(C)c2-c2ccno2)c1 | -13 | 2.29
45 | C[C@H]1C[C@@H](CO)CCN1Cc1cnc(-c2ccco2)s1 | 4 | -0.47
46 | NS(=O)(=O)C[C@H]1CCN(C(=O)c2ccc(-c3noc(C4CC4)n3)cc2)C1 | 8 | -1.64
47 | CC(O)CCN(C)C(=O)NC(C)c1cc(F)c(F)c(F)c1 (stereo not drawn) | -8 | 0.68
48 | CC(C)(C#N)c1ccc(C(=O)N2CCOCC23CCCC3)cc1 | 2 | -0.21
49 | C[C@H]1C(=O)N(C)CCN1C(=O)NCc1cc(-c2ccccc2Cl)no1 | -15 | 1.7
50 | FC(F)(F)c1cccnc1OC[C@H]1CCCOC1 | 1 | -0.15
51 | CC(C)(C)C1=NS(=O)(=O)c2c(CO)ccc(Cl)c21 | -39 | 4.54
52 | Cc1ncc(S(=O)(=O)NC(=O)C(C)(C)C)s1 | -35 | 4.06
53 | Cc1cc(C)n(-c2ccc(COc3ccccc3C#N)cc2)n1 | -7 | 1.11
54 | COCCN(C)c1ccc(CNc2ccc3c(c2)COC3)cn1 | -7 | 0.84
